Test results as given in the supplement of paper PMC4604168 (melanoma cell lines).
The other results are listed elsewhere or left out. Single values are uncertain, as repeats are few or missing.

What was measured:
Assay in all cases: cell count relative to DMSO control; melanoma cells; higher = more viable cells
Conditions in all cases: library dose: low library concentration; 72 h
MZ2-MEL = test system: MZ2-MEL
MeWo = test system: MeWo
RPMI7951 = test system: RPMI7951
RVH-421 = test system: RVH-421
SkMel28 = test system: SkMel28
SkMel2 = test system: SkMel2
SkMel30 = test system: SkMel30
UACC62 = test system: UACC62
WM115 = test system: WM115
WM1716 = test system: WM1716
WM1745 = test system: WM1745
WM3526 = test system: WM3526
WM3619 = test system: WM3619
WM451Lu = test system: WM451Lu
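Also: cell number obtained by counting DAPI-stained nuclei in high-throughput microscope images with image analysis software, screen run in 1,536-well plates.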

Compound	cell count (MZ2-MEL) [%]	cell count (MeWo) [%]	cell count (RPMI7951) [%]	cell count (RVH-421) [%]	cell count (SkMel28) [%]	cell count (SkMel2) [%]	cell count (SkMel30) [%]	cell count (UACC62) [%]	cell count (WM115) [%]	cell count (WM1716) [%]	cell count (WM1745) [%]	cell count (WM3526) [%]	cell count (WM3619) [%]	cell count (WM451Lu) [%]
Nc1nc(F)nc2c1ncn2[C@@H]1O[C@H](CO)[C@@H](O)[C@@H]1O [fludarabine] + OCc1c[nH]c2ccccc12 [Indole-3-carbinol] (first compound 0.2 µM, partner dose 0.8 µM)	89.9	32.7	89.2	85.7	74.7	5.65	16.8	68.8	104	89.7	99.1	29.3	75.4	53.9
CC(=O)c1c(C)c2cnc(Nc3ccc(N4CCNCC4)cn3)nc2n(C2CCCC2)c1=O [palbociclib] + Cn1c(Nc2ccc(C(F)(F)F)cc2)nc2cc(Oc3ccnc(-c4ncc(C(F)(F)F)[nH]4)c3)ccc21 [CHIR265] (first compound 0.04 µM, partner dose 0.08 µM)	64.6	49.8	47.8	58.4	61.8	71.5	39	38.9	58.9	58.4	58.7	46.4	66	79
Nc1ncn([C@H]2C[C@H](O)[C@@H](CO)O2)c(=O)n1 [decitabine] + OCc1c[nH]c2ccccc12 [Indole-3-carbinol] (first compound 0.1 µM, partner dose 0.8 µM)	86.3	107	83.1	59.9	82.4	97.7	111	88.2	100	87	102	89	82.2	88.7
CC(=O)c1c(C)c2cnc(Nc3ccc(N4CCNCC4)cn3)nc2n(C2CCCC2)c1=O [palbociclib] + Nc1cccc2c1CN(C1CCC(=O)NC1=O)C2=O [lenalidomide] (first compound 0.04 µM, partner dose 1 µM)	85.2	77.3	71.2	71.7	63.1	85.2	79.1	76.6	67.8	71.7	65.2	63.7	53.3	75.2
CC(=O)O[C@@]12CO[C@@H]1C[C@H](O)[C@@]1(C)C(=O)[C@H](O)C3=C(C)[C@@H](OC(=O)[C@H](O)[C@@H](NC(=O)OC(C)(C)C)c4ccccc4)C[C@@](O)([C@@H](OC(=O)c4ccccc4)[C@H]21)C3(C)C [Docetaxel] + CCCS(=O)(=O)Nc1ccc(F)c(C(=O)c2c[nH]c3ncc(Cl)cc23)c1F [PLX4720] (first compound 0.0001 µM, partner dose 0.08 µM)	39.8	42.7	38.5	55.8	32.7	43	31.7	38.6	71.8	40.1	58.6	36	75.7	86.3
CC(=O)O[C@@]12CO[C@@H]1C[C@H](O)[C@@]1(C)C(=O)[C@H](O)C3=C(C)[C@@H](OC(=O)[C@H](O)[C@@H](NC(=O)OC(C)(C)C)c4ccccc4)C[C@@](O)([C@@H](OC(=O)c4ccccc4)[C@H]21)C3(C)C [Docetaxel] + COc1ccc(Cl)c(Nc2nc3ccccc3nc2NS(=O)(=O)c2cccc(NC(=O)C(C)(C)N)c2)c1 [XL147] (first compound 0.0001 µM, partner dose 0.8 µM)	49.6	49.7	35.7	81.9	57.1	55.9	33.9	45.1	66	40.1	61.9	46.8	66.3	56
Nc1ncn([C@H]2C[C@H](O)[C@@H](CO)O2)c(=O)n1 [decitabine] + Clc1ccc(Nc2nnc(Cc3ccncc3)c3ccccc23)cc1 [vatalanib] (first compound 0.1 µM, partner dose 2 µM)	85.4	83.9	71	91	82.1	91.6	110	76.3	82.2	77.2	73.4	88.4	88	87.5
CC(=O)O[C@@]12CO[C@@H]1C[C@H](O)[C@@]1(C)C(=O)[C@H](O)C3=C(C)[C@@H](OC(=O)[C@H](O)[C@@H](NC(=O)OC(C)(C)C)c4ccccc4)C[C@@](O)([C@@H](OC(=O)c4ccccc4)[C@H]21)C3(C)C [Docetaxel] + C#Cc1cccc(Nc2ncnc3cc(OCCOC)c(OCCOC)cc23)c1 [erlotinib] (first compound 0.0001 µM, partner dose 0.8 µM)	42.8	36.8	32.3	49.8	36.4	37.8	28.9	35.3	49.1	38	36	43.3	64.8	58.5
Nc1ncn([C@H]2C[C@H](O)[C@@H](CO)O2)c(=O)n1 [decitabine] + COc1ccc(Cl)c(Nc2nc3ccccc3nc2NS(=O)(=O)c2cccc(NC(=O)C(C)(C)N)c2)c1 [XL147] (first compound 0.1 µM, partner dose 0.8 µM)	76.4	92.1	89.5	92.9	113	93.8	132	90.4	89.9	71.9	82.8	125	137	102
Nc1nc(F)nc2c1ncn2[C@@H]1O[C@H](CO)[C@@H](O)[C@@H]1O [fludarabine] + Cn1c(Nc2ccc(C(F)(F)F)cc2)nc2cc(Oc3ccnc(-c4ncc(C(F)(F)F)[nH]4)c3)ccc21 [CHIR265] (first compound 0.2 µM, partner dose 0.08 µM)	91.5	33.8	49	57.3	43.5	4	16	43.7	54.5	82	80.5	19.2	67.5	54.4
CC(=O)O[C@@]12CO[C@@H]1C[C@H](O)[C@@]1(C)C(=O)[C@H](O)C3=C(C)[C@@H](OC(=O)[C@H](O)[C@@H](NC(=O)OC(C)(C)C)c4ccccc4)C[C@@](O)([C@@H](OC(=O)c4ccccc4)[C@H]21)C3(C)C [Docetaxel] + Cn1c(Nc2ccc(C(F)(F)F)cc2)nc2cc(Oc3ccnc(-c4ncc(C(F)(F)F)[nH]4)c3)ccc21 [CHIR265] (first compound 0.0001 µM, partner dose 0.08 µM)	27.7	31.3	34.5	62.5	31.5	32.4	19.3	24.8	25.9	21.6	39.6	13.1	57.5	39
Nc1ccn([C@@H]2O[C@H](CO)[C@@H](O)C2(F)F)c(=O)n1 [gemcitabine] + C[C@]1(c2nc3c(C(N)=O)cccc3[nH]2)CCCN1 [Veliparib] (first compound 0.0004 µM, partner dose 1.4 µM)	89.7	89.2	77.1	115	86.7	105	80.1	87.9	90.4	88.7	73.8	108	78.5	99
Nc1ccn([C@@H]2O[C@H](CO)[C@@H](O)C2(F)F)c(=O)n1 [gemcitabine] + Cc1nc(Nc2ncc(C(=O)Nc3c(C)cccc3Cl)s2)cc(N2CCN(CCO)CC2)n1 [dasatanib] (first compound 0.0004 µM, partner dose 0.004 µM)	78.4	92.5	73.7	99.2	99.5	84.8	98.1	87.4	78	82.7	48.9	126	67.2	97.5
Nc1ccn([C@@H]2O[C@H](CO)[C@@H](O)C2(F)F)c(=O)n1 [gemcitabine] + CC(=O)c1c(C)c2cnc(Nc3ccc(N4CCNCC4)cn3)nc2n(C2CCCC2)c1=O [palbociclib] (first compound 0.0004 µM, partner dose 0.04 µM)	83.8	83.6	79.4	69.5	75.2	106	80.4	89.9	84.4	66.7	74	75.6	81	83.3
Nc1ccn([C@@H]2O[C@H](CO)[C@@H](O)C2(F)F)c(=O)n1 [gemcitabine] + Nc1ncn([C@H]2C[C@H](O)[C@@H](CO)O2)c(=O)n1 [decitabine] (first compound 0.0004 µM, partner dose 0.1 µM)	82.4	87.2	58.5	94.7	96.4	103	97.8	83.4	75.9	74.8	79	111	61.2	92.9
CC(=O)O[C@@]12CO[C@@H]1C[C@H](O)[C@@]1(C)C(=O)[C@H](O)C3=C(C)[C@@H](OC(=O)[C@H](O)[C@@H](NC(=O)OC(C)(C)C)c4ccccc4)C[C@@](O)([C@@H](OC(=O)c4ccccc4)[C@H]21)C3(C)C [Docetaxel] + CS(=O)(=O)CCNCc1ccc(-c2ccc3ncnc(Nc4ccc(OCc5cccc(F)c5)c(Cl)c4)c3c2)o1 [lapatinib] (first compound 0.0001 µM, partner dose 0.8 µM)	45.4	40.4	43	73	34.5	36.7	32.6	48.3	54.1	46.7	46.1	53.8	53.4	62.4
Nc1nc(F)nc2c1ncn2[C@@H]1O[C@H](CO)[C@@H](O)[C@@H]1O [fludarabine] + COCC[n+]1c2c(n(Cc3cnccn3)c1C)C(=O)c1ccccc1C2=O [YM155] (first compound 0.2 µM, partner dose 0.0004 µM)	52	34.9	78.1	98.8	72.3	2.62	13.1	65.6	68	94.3	75.9	17.9	81.9	39.4
